Our source for the Potency values is PubChem BioAssay AID360 (National Center for Advancing Translational Sciences (NCATS), 2006).

The structures appear in SMILES notation. In all, about 48,000 compounds went through this assay and about 550 (1.1%) were called active. Not shown: some 4% with an inconclusive outcome. Cut-off read from the data, not from the text of the source: active = potency below about 15 µM; inconclusive = mostly about 16 µM to 33 µM; inactive = weaker than that. This is one part of the list.
Potency is the fitted concentration of half-maximal effect.

Chain of UniProt P04062 (P04062 whole entry, looked up): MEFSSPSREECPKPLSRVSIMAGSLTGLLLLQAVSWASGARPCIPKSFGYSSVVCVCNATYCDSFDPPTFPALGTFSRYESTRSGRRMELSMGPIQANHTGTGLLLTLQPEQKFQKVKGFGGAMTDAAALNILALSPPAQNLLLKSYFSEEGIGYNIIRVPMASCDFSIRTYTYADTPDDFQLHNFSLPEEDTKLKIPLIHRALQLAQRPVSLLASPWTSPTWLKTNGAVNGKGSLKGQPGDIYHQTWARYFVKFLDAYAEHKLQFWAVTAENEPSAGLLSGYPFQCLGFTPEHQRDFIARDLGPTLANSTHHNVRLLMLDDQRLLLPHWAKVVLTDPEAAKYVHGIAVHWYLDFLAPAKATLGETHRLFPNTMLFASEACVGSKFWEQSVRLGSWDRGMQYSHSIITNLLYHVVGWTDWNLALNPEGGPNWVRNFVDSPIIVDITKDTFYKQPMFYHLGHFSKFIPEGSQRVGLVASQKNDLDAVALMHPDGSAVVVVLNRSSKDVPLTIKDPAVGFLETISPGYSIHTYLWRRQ

This assay concerns the target Lysosomal acid glucosylceramidase (Homo sapiens) (UniProt P04062). In words: Glucocerebrosidase.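 Note: the screen sought inhibitors.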 The conditions noted are these: purified enzyme, resorufin glucoside fluorescence (screen aimed at inhibitors), 20 min. The procedure, abridged:
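Wild-type enzyme at 0.2 nM final in 50mM citric acid/KH2PO4, 10mM sodium taurocholate, 0.01% tween-20, pH 5.9, with resorufin beta-D-glucopyranoside at 30 uM final. Compounds titrated, 20 min at RT, red fluorescence read; AC50 from titration.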
With `CCOC(=O)c1cnc2nc(NCc3ccc(OC)c(OC)c3)[nH]n2c1=O`, the Potency was inactive: > 76.9 µM. With `CCOCCc1nnc(NC(=O)Cc2ccccc2)s1`, the Potency was inactive: > 76.9 µM. Regarding `Cc1cc(C(=O)COC(=O)Cn2cnc3c2c(=O)n(C)c(=O)n3C)c(C)n1C`, the Potency was inactive: > 76.9 µM. In the case of `CSCC[C@H](NC(=O)C1CCN(S(=O)(=O)c2ccc(C)cc2)CC1)C(=O)NCc1ccco1`, the Potency was inactive: > 76.9 µM. In the case of `Cc1ccc2[nH]c(-c3cccc(N)c3)cc2c1` it was inactive: > 15.4 µM. `CN(C(=O)c1ccncc1)c1nnc(-c2cccnc2)s1`: the Potency is inactive: > 76.9 µM. In the case of `CC(=O)Nc1nc2ccccc2n1Cc1ccccc1C` it was inactive: > 76.9 µM; in that of `COc1ccc(NC(=O)C2CCN(Cc3cnn(-c4ccccc4)c3-n3cccc3)CC2)cc1OC`, inactive: > 76.9 µM.

For `COC(=O)C1CCN(C(=O)COC(=O)Cc2c[nH]c3ccccc23)CC1`, the Potency was inactive: > 76.9 µM. For the compound `CCOC(=O)Cc1csc(/C(=N/O)C(N)=O)n1`, the Potency is inactive: > 76.9 µM. As to `CCOC(=O)c1[nH]c2ccc(F)cc2c1NC(=O)CN1CCc2cc(OC)c(OC)cc2C1`, the Potency is inactive: > 76.9 µM. In the case of `Cc1cc(C(C)(C)C)cc(C)c1COC(=O)C1CCC(=O)N1` (centres undefined), the Potency was inactive: > 76.9 µM.

In the case of `CCCCCn1c(=O)c(-c2nc3ccccc3c(=O)[nH]2)c(O)c2ccccc21`, the Potency is inactive: > 76.9 µM. Turning to `COc1ccc(CNC2CCCCC2)cc1`, the Potency was inactive: > 76.9 µM. Regarding `O=C(NC1CCCCC1)/C(=N\O)c1ccccn1`, the Potency is inactive: > 76.9 µM. In the case of `O=C(CSc1nnc(Cn2nnc3ccccc32)o1)N(Cc1ccc(F)cc1)c1ccccc1` it was “inactive”.

Take `COc1cccc(NC(=O)CNC(=O)c2ccc(F)cc2)c1`: the Potency was inactive: > 76.9 µM. In the case of `CCC(=O)/C=C1\Sc2ccc(OC)cc2N1CCO` it was inactive: > 76.9 µM; in that of `CCOC(=O)c1sc(C)c2c1NC(C)(c1cccs1)NC2=O` (centres undefined), inactive: > 76.9 µM. As for `CC1CCCN(S(=O)(=O)c2ccc(C(=O)Nc3nnc(-c4ccccc4Cl)o3)cc2)C1` (centres undefined), the Potency is inactive: > 76.9 µM. Take `CN1C(=O)CSc2ccc(NC(=O)N3CCOCC3)cc21`: the Potency was inactive: > 76.9 µM.

For the compound `CCCCOc1ccc(C(=O)NCc2ccccn2)cc1`, the Potency was inactive: > 76.9 µM. Then `CN(C)C(=O)Cn1c(=O)n(C)c2ccccc21`, with inactive: > 76.9 µM; and `COc1cc(NC(=O)c2ccccc2)c(OC)cc1NC(C)=O`, with inactive: > 76.9 µM; and `Cc1cc(C)nc(NC2=NCCN2C(=O)NC2CCCCC2)n1`, with inactive: > 76.9 µM.

For the compound `CCn1c(SCC(=O)Nc2c(C)n(C)n(-c3ccccc3)c2=O)nnc1-c1cccc(C)c1`, the Potency was inactive: > 76.9 µM.

As to `C=CCn1c(Oc2cc(C)ccc2C)nc2c1c(=O)n(C)c(=O)n2C`, the Potency is inactive: > 76.9 µM. For the compound `Cc1cc(C)c2c(n1)nn1c(C3CC3)cc(C(F)(F)F)nc21`, the Potency was inactive: > 76.9 µM. On to `Cn1cc(CC(=O)Nc2cccc(C#N)c2)c2ccccc21`, for which the Potency was inactive: > 76.9 µM. As to `CCS(=O)(=O)CCSc1nc2ccccc2o1`, the Potency was inactive: > 76.9 µM. In the case of `CC(=O)C1C(c2ccncc2)NC(=O)NC1(O)C(F)(F)F` (centres undefined) it was inactive: > 76.9 µM; in that of `COc1ccc(Br)cc1CNCCSc1nnnn1C`, inactive: > 76.9 µM. For `O=C(NCc1cccs1)c1ccc2c(c1)OCCO2`, the Potency is inactive: > 76.9 µM.

Take `N#Cc1nc(COc2ccccc2F)oc1N1CCCCCC1`: the Potency was inactive: > 76.9 µM. Then `COc1ccc(C(=O)N2CCN(C(=O)c3ccco3)CC2)cc1OC`, with inactive: > 76.9 µM. Then `CCOC(=O)N1CCN(C(=O)CSCC(=O)Nc2nc(-c3cccs3)cs2)CC1`, with inactive: > 76.9 µM. In the case of `COc1ccccc1N1CCN(C(=O)c2c(-c3ccccc3Cl)noc2C)CC1`, the Potency is inactive: > 76.9 µM. Regarding `O=C(CSc1nc(Nc2ccccc2)nc(N2CCOCC2)n1)Nc1ccc2c(c1)OCCO2`, the Potency was inactive: > 76.9 µM. Turning to `O=C(O)c1cc2n(n1)C(C(F)(F)F)CC(c1ccco1)N2` (centres undefined), the Potency was inactive: > 76.9 µM.

`C=CCn1c(SCC(=O)NCc2ccco2)nnc1-c1ccc2ccccc2n1`: the Potency was inactive: > 76.9 µM.

In the case of `CC1CCN(CCCNC(=O)Cc2c(C(=O)O)n(C)c3ccccc23)CC1`, the Potency is inactive: > 76.9 µM. In the case of `COc1ccc(C(c2nnnn2Cc2ccccc2)N2CCN(C(=O)c3ccco3)CC2)cc1` (centres undefined) it was inactive: > 76.9 µM. As for `O=C(Nn1c(C2CC2)nc2ccccc2c1=O)c1ccco1`, the Potency is inactive: > 76.9 µM. As to `COC(=O)c1ccc(CSc2nc3c(c(=O)n2-c2ccc(Br)cc2)SCC3)o1`, the Potency was active: 4.94 µM. Then `COc1cccc(OC)c1C(=O)Nc1ccc(NC(=O)c2ccco2)cc1`, with inactive: > 76.9 µM; and `Cc1cc(N2CCN(C(=O)OC(C)(C)C)CC2)n2ncnc2n1`, with inactive: > 76.9 µM; and `COC(=O)COc1cccc(-n2cnnn2)c1`, with inactive: > 76.9 µM.

With `CCN(CC(=O)NC1CCCC1)S(=O)(=O)c1ccc(C)cc1`, the Potency is inactive: > 76.9 µM.

Regarding `O=C(CCn1nc(-c2ccccc2)c2ccccc2c1=O)NCC1CCCO1` (centres undefined), the Potency was inactive: > 76.9 µM. In the case of `O=C(Nc1ccc(Br)c(Cl)c1)c1ccco1`, the Potency is inactive: > 76.9 µM. In the case of `Cc1ccc(N(CC(=O)N2CC(=O)Nc3ccccc32)S(=O)(=O)c2ccc3c(c2)OCCO3)cc1` it was “inactive”; in that of `CSc1cccc(NC(=O)COc2ccccc2)c1`, inactive: > 76.9 µM; in that of `Cc1cc(C)nc(SCCn2c(N3CCCCC3)nc3c2c(=O)n(C)c(=O)n3C)n1`, inactive: > 76.9 µM.

For `CC12/C(=N/O)C3C4CC5C3/C(=N/O)C1C5C42` (centres undefined), the Potency was inactive: > 76.9 µM. Then `COc1ccc(OCCOC(=O)c2cccs2)cc1`, with inactive: > 76.9 µM; and `NC(=O)C1(N2CCCCC2)CCN(C2CC(=O)N(Cc3cccs3)C2=O)CC1` (centres undefined), with inactive: > 76.9 µM; and `O=C(CCCOc1ccc(Cl)cc1Cl)N1CCN(c2ccccn2)CC1`, with inactive: > 76.9 µM. Take `Cc1onc(-c2ccccc2Cl)c1C(=O)OCC(=O)N1CCCc2ccccc21`: the Potency was inactive: > 76.9 µM. In the case of `COCCN(CC(=O)NCc1ccc(OC)cc1)C(=O)CCC(=O)Nc1nccs1` it was inactive: > 76.9 µM.
